Results from PMC4336329 (PLoS ONE, 2015).
Screen size: about 310,000 compounds; about 14,000 (4.5%) showed an effect of 50% or more. The effect is printed as a negative number. This is one part of the list.

What follows are compounds tested against human ether-à-go-go-related gene (hERG) potassium channel (human, UniProt Q12809) (assay: primary screen, population patch clamp on CHO cells stably expressing hERG).
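Also: peak tail current of the secondary pulse compared with the same well before compound.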

Sequence of human ether-à-go-go-related gene (hERG) potassium channel (Q12809 whole entry, looked up): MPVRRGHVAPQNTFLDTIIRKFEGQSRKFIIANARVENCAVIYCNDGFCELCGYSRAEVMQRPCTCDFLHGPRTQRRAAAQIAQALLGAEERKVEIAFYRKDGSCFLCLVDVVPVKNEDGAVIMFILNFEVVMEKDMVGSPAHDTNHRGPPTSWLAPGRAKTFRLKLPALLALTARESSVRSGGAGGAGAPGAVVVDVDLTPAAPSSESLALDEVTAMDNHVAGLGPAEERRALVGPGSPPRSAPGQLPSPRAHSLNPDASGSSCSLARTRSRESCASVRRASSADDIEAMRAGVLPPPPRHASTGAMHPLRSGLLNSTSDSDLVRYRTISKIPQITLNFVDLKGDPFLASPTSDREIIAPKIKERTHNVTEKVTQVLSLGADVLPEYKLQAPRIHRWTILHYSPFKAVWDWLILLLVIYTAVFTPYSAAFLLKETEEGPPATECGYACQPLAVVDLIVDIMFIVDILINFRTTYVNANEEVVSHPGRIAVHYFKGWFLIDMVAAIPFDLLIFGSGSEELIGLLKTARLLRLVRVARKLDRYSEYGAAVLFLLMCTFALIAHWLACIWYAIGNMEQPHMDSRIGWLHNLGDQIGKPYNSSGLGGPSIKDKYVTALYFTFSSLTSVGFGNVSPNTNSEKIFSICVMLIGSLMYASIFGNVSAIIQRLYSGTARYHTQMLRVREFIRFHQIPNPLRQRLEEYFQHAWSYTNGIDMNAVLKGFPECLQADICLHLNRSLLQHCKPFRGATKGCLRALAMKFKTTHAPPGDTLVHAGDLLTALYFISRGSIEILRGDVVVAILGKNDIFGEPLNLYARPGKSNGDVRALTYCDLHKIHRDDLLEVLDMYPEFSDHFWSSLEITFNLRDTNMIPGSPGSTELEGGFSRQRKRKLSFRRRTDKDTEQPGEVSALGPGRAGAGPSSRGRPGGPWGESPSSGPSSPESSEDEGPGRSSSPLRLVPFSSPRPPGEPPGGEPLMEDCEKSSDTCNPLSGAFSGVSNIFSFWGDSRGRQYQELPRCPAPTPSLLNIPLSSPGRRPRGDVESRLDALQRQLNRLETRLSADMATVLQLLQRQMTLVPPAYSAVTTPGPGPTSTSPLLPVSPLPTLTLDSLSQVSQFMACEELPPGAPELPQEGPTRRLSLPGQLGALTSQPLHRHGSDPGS

Structure (SMILES) | hERG current change (%, negative = inhibition) at 10uM [%]
O=C(Nc1cc(Cl)ccc1Oc1ccccc1)c1ccccc1F | -4.45
CN(C)c1ccc(/C=C2/NC(=O)NC2=O)cc1 | 25.7
C/C(CC(=O)Nc1cc(C)ccn1)=N\NC(=O)c1cccc(C)c1 | 0.9
COc1ccccc1NS(=O)(=O)CC12CCC(CC1=O)C2(C)C (centres unmarked) | 4.78
Cc1cc(OC(=O)N(C)C)nc(SCc2c(Cl)cccc2Cl)n1 | -6.04
c1ccc(OCCn2cnc3ccccc32)cc1 | -9.08
C=CCn1c(=N)c(S(=O)(=O)c2ccc(C)c(C)c2)cc2c(=O)n3ccccc3nc21 | 14.3
C/C(=N/NC(=O)Cc1c(C)[nH][nH]c1=O)c1ccc(O)cc1 | 14.8
COCCCNC(=S)Nc1ccc(C)cc1[N+](=O)[O-] | 1.51
Fc1ccccc1NC(=S)N/N=C/c1ccccc1Br | 1.26
COc1cc(NC(=S)N(C)C)c(OC)cc1Cl | 15.2
O=C(O)CCNC(=O)CCCn1nnc2ccccc2c1=O | 13
CCOC(=O)C1(Cc2cccc(Cl)c2)CCCN(C(=O)c2cnn(CC)c2)C1 (centres unmarked) | -6.39
Clc1cccc(Cl)c1CNc1ccc(N2CCCC2)cc1 | -2.46
CCOc1ccc(-c2nnc3sc(COc4ccc(Cl)cc4)nn23)cc1 | -2.27
Cc1ccc(S(=O)(=O)N2CCCC(C(=O)NCCc3ccc(S(N)(=O)=O)cc3)C2)cc1 (centres unmarked) | 3.93
CCCCCCCC(=O)Nc1ccc(S(=O)(=O)Nc2nccs2)cc1 | 4.7
O=C(NC1CCSC1=O)c1cccc(Cl)c1 (centres unmarked) | 0.94
CN(c1ccccc1)S(=O)(=O)c1cccc(C(=O)OCC(=O)NCCCN2CCCC2=O)c1 | -16.9
Cc1ccc(-c2nc(-c3ccccn3)sc2CC(=O)O)cc1 | 2.76
CCOc1ccc(NC(=S)NC(=O)/C=C/c2ccco2)cc1 | 6.61
COc1cc(Br)c(CC(=O)NC2CC2)cc1OC | 17.8
Cn1c(CCN2CCOCC2)nc2cc(NC(=O)COc3ccc(Cl)cc3)ccc21 | -55.4

Structure (SMILES) | hERG current change (%, negative = inhibition) at 10uM [%]
CC(C)NC(=O)c1ccc2c3n(nc2c1)-c1ccccc1CO3 | -13
Cc1ccc(Oc2ncc(CN3CCOCC3)s2)cc1 | 3.3
COc1ccccc1/C=C/C=N/n1c(C2CCCCC2)n[nH]c1=S | 16.2
O=C(c1ccc(F)cc1F)N1CCCc2ccccc21 | -9.83
CCOCC(=O)Nc1ccc(S(=O)(=O)N2CCC(c3nc4ccccc4[nH]3)CC2)cc1 | -14.8
CN(C(=O)CSc1nnc(-c2ccccc2)n1C)C1CCS(=O)(=O)C1 (centres unmarked) | 4.31
COc1cc(CCC(=O)Nc2ccncc2Cl)cc(OC)c1OC | -0.962
CN1CCN(C(=O)c2ccc(COc3ccc(Cl)cc3Cl)cc2)CC1 | -20.9
CC(=O)Nc1ccc(Nc2nnc(-c3ccc(C)c(S(=O)(=O)NCC4CCCO4)c3)c3ccccc23)cc1 (centres unmarked) | -5.1
Cc1ccc(C)n1C(CC(=O)O)c1ccc(C#N)cc1 (centres unmarked) | 18.3
CN(C)C(CNS(=O)(=O)c1ccc(F)cc1)c1cccnc1 (centres unmarked) | 29.5
COCCn1c(SCC(=O)Nc2ccc(OC)cc2OC)nc2ccccc2c1=O | 10.5
CCc1nnc(NS(=O)(=O)c2ccc(NC(=S)NC(=O)c3ccc(F)cc3)cc2)s1 | -13.2
CCOC(=O)C1C(=O)C=C(c2ccc(C)cc2)CC1c1cccc([N+](=O)[O-])c1 (centres unmarked) | -4.88
CO/N=C1\CCCc2c(C(=O)NN)sc(SC)c21 | 6.7
CC(=O)N=c1c(C#N)cc2c(=O)n3cccc(C)c3nc2n1Cc1ccco1 | -35.3
O=C(NNc1c(F)c(F)cc(F)c1F)c1cc2ccccc2oc1=O | 9.99
O=C(CC1S/C(=N/N=C/C=C/c2ccccc2)NC1=O)Nc1ccc(Cl)c(Cl)c1 (centres unmarked) | 11.9
CC(=O)Nc1ccc(NC(=O)CSc2nc(N)c(NC(=O)c3ccccc3F)c(=O)[nH]2)cc1 | 7.35
Cc1ccc(S(=O)(=O)N2CCOCC2)cc1NC(=O)CSc1nc2ccccc2c(=O)n1Cc1ccccc1 | -46.1
Cn1c(-c2ccccc2)c[n+]2c1CCCCC2.[Br-] | -0.399
CCCCn1c(CCNC(=O)c2cccs2)nc2ccccc21 | -33.2
CC(=O)NC1=NN(C(C)=O)C2(S1)C(=O)N(C(C)C)c1ccc(C)cc12 (centres unmarked) | 3.66

Structure (SMILES) | hERG current change (%, negative = inhibition) at 10uM [%]
Cc1ccc(C(=O)N2C3=C(CCCC3)C(=O)NC23CCCCC3)cc1 | 33
CN(CCCC(=O)N1CCCC(C(N)=O)C1)S(=O)(=O)c1ccc(F)cc1 (centres unmarked) | -0.711
CN1Cc2c(N3CCOCC3)nc3sc(C(=O)c4ccccc4)c(N)c3c2CC1(C)C | 11.2
Cc1ccsc1C(=O)C1CCCN(Cc2cnc(N)nc2)C1 (centres unmarked) | -4.85
CC(=O)c1ccc(S(=O)(=O)N2CCN(C(=O)CSc3ccc(C)c(C)c3)CC2)cc1 | -16.1
CCCNC(=O)CSc1nc2ccc(OCC)cc2s1 | 7.92
CCOC(=O)c1cc(-c2ccccc2)n(CC(=O)Nc2ccc(OC)cc2)c1C | 6.19
CCN1C(C(=O)Nc2cc(C)on2)=C(O)c2ccccc2S1(=O)=O | 24.7
Cc1ccc(CC2CC(=O)N(c3cc(Cl)ccn3)C2=O)cc1 (centres unmarked) | -0.469
COc1cccc(OC)c1C(=O)N1CCN(Cc2cccnc2)CC1 | 27.2
Cc1ccc(NC(=O)CN(C)C(=O)c2cc(S(=O)(=O)N(C)C)ccc2N2CCCC2)cc1 | 3.15
C/C(=N\NC(=O)COc1cccc(Cl)c1)c1ccc2c(c1)OCCO2 | 6.72
COc1ccc(-c2nc3ccccc3nc2-c2ccccc2)cc1OC | -4.02
CCOC(=O)c1nc(C)n(-c2ccc([N+](=O)[O-])cc2)n1 | -17.5
O=C(OCc1cccc(Cl)c1)c1cc(S(=O)(=O)N2CCCCC2)ccc1N1CCOCC1 | 1.09
COc1cccc(CNc2nc(C(F)(F)F)nc3ccccc23)c1 | 0.0262
CCc1ccccc1NC(=O)C1CCN(S(=O)(=O)c2ccc3c(c2)N(C(C)=O)CCO3)CC1 | 17.2
C1CCc2c(nnc3c2-c2nonc2CC3)C1 | 0.993
O=[N+]([O-])c1cccc(CCl)c1 | -0.214
CN(CCOc1ccc(Br)cc1)CC(O)c1ccccc1.O=C(O)C(=O)O (centres unmarked) | -63.1
CCn1c(SCC(=O)Nc2ccc(C(=O)OC)cc2)nnc1-c1cccs1 | -10.7
O=C(O)c1ccccc1-c1ccccc1C(=O)NCc1cccnc1 | 20.2
CCn1c(=O)c(C(=O)CN(C)Cc2ccc(F)cc2)c(N)n(Cc2ccccc2)c1=O | -71

Structure (SMILES) | hERG current change (%, negative = inhibition) at 10uM [%]
O=C(Cn1c(=O)c2c(ncn2C2CCCC2)n(Cc2ccccc2)c1=O)N1CCc2ccccc21 | 16.8
CCN(CC(=O)Nc1cc(Cl)ccc1OC)CC(=O)NC1CCS(=O)(=O)C1.O=C(O)C(=O)O (centres unmarked) | -3.74
Cc1cccc(C2C3=C(CCCC3=O)N=C3c4ccccc4C(=O)C32)c1 (centres unmarked) | -0.327
CCc1ccc(NC(=O)COc2ccc3c(c2)OCO3)cc1 | -1.69
COCc1cc(=O)[nH]c(/N=C(\N)Nc2ccc(C)cc2)n1 | -17.6
CC(=O)N1c2ccc(S(=O)(=O)NCCC(=O)Nc3ccccc3C)cc2CC1C (centres unmarked) | 5.38
CN(C)C1=NCCN1CCc1ccccc1 | 12
Nc1nn(-c2ccccc2)nc1C(=O)OCc1ccccc1 | 14.9
O=C(CCCn1c(=S)[nH]c2cc3c(cc2c1=O)OCO3)NCc1cccc(Cl)c1 | 22.4
Cc1cc(C(F)F)n2nc(C(=O)Nc3sc4c(c3C#N)CCC(C)C4)nc2n1 (centres unmarked) | -5.85
COC(=O)c1ccccc1NC(=O)/C=N/O | -31.5
N#Cc1nc(-c2ccc(OCc3ccc(Cl)cc3)cc2)oc1NCc1cccnc1 | 19.9
COc1ccc(NC(=S)N2CCNC(=O)C2CC(=O)Nc2cccc(Cl)c2C)cc1 (centres unmarked) | -20.2
Cc1cc(C)n(-c2nc(O)cc(=O)[nH]2)n1 | 5.04
COc1cc(CN2CCN(c3cc(C)ccc3C)CC2)cc([N+](=O)[O-])c1O | 7.26
CCOc1ccc(NC(=S)N2CCC(c3ccc(C)cc3)C2)cc1 (centres unmarked) | -6.63
CN(CC(=O)Nn1cnnc1)S(=O)(=O)c1cc(Cl)ccc1Cl | 4.75
Cc1nnc(SCc2cccc3ccccc23)n(N)c1=O | 3.09
COc1ccccc1NC(=S)N1CCN(c2ncccn2)CC1 | 31.9
CC#CC(=O)N1CCC(CCC(=O)N(C)Cc2ccccc2)CC1 | -7.72
